Reference: PMC12040169 (PLOS Biology, 2025)
Some of the results follow.

tested on: T1, C. trachomatis L2/434/Bu expressing GFP (CTL2-GFP); parameters: species or system HeLa; C. trachomatis total inclusion area by high-content imaging, normalised to DMSO; settings: total inclusion area; 28.5 h, 10 µM; inhibitor
T1 construct: L2/434/Bu GFP intracellular growth in HeLa cells
Method in brief: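 Imaging read-out: GFP inclusions and Hoechst nuclei captured by high-content imaging after fixation. Inclusion area/number = chlamydial growth; nuclei count = host cell viability. MIC calculated per earlier method.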

Row | SMILES | % of control remaining
1 | CN1CCN([C@H]2[C@@H]3OC[C@@H](O3)[C@@H](NCc3ccc(CO)o3)[C@@H]2O)CC1 [CBK288823] | 85.8618
2 | COc1cc(OC)nc(CN2CCOC3(CCN(C(=O)c4ccc5ccccc5c4)CC3)C2)n1 [CBK161121A] | 80.7134
3 | NNC(=O)COc1ccc(Cl)cc1Cl [CBK261671] | 103.646
4 | Cc1ccc(S(=O)(=O)N/N=C/C=C/c2ccc(N(C)C)cc2)cc1 [CBK265078] | 106.805
5 | Cc1ccc(-c2nc3ccccc3c(=O)o2)cc1C [CBK288137] | 80.362
6 | CS(=O)(=O)N1CCC(C(=O)NC(c2ccccc2)c2ccccc2)CC1 [CBK269801] | 92.2562
7 | Cc1cccc(-c2ncc(C(=O)NCCN3CCOCC3)cc2-c2ccc(O)cc2)c1 [CBK037435] | 126.75
8 | Fc1ccccc1CSc1nnc(-c2cnccn2)n1Cc1ccco1 [CBK267556] | 105.186
9 | Cc1cc(N2C(=O)CC(N3CCC(C(=O)N4CCOCC4)CC3)C2=O)no1 (stereo not drawn) [CBK269035] | 78.994
10 | COc1ccc([C@@]23CC[C@H](NC(=O)c4[nH]cnc4C)C[C@@H]2N(C)CC3)cc1OC [CBK038097] | 101.095
11 | Nc1ccc(-c2cn3ccnc3c(NCC3CC3)n2)cc1 [CBK066677] | 160.231
12 | CCN1C(=O)CC(N2CCN(c3cc(-c4ccc(OC)cc4)nc(C)n3)CC2)C1=O (stereo not drawn) [CBK269744] | 73.4282
13 | CC1(C(F)(F)F)OC(NC2C3CC4CC(C3)CC2C4)=NC1=O (stereo not drawn) [CBK115312] | 88.2
14 | Cc1cccc(C(=O)Nc2ncn(CC(=O)N3CCCCCC3)n2)n1 [CBK304954] | 74.1242
15 | Cn1ncc2c(SCc3cc4c(cc3Br)OCCO4)ncnc21 [CBK297732] | 60.1948
16 | CN(C(=O)c1cccn1C)C1CCN(c2ncnc3ccccc23)CC1 [CBK306110] | 61.3822
17 | Cc1cc(-c2cc(=O)n(CCc3ccccc3)nc2-c2ccco2)on1 [CBK282879] | 95.7642
18 | O=C(O)/C=C/c1cn(-c2ccccc2)nc1-c1cccs1 [CBK263119] | 107.667
19 | COc1ccc(CN2CCCN(c3cc(OCC4COc5ccccc5O4)ncn3)CC2)cc1 (stereo not drawn) [CBK083255T] | 31.3397
20 | COc1ccc(C(=O)C2=C(O)C(=O)N(CCCN(C)C)C2c2ccncc2)cc1Cl (stereo not drawn) [CBK266529] | 103.815
21 | Cc1noc(C)c1NC(=O)c1cncn1C [CBK200396] | 64.3461
22 | OC(CN1CCNCC1)Cn1c2ccc(Cl)cc2c2cc(Cl)ccc21 (stereo not drawn) [CBK094277G] | 8.949
23 | COc1ccccc1-c1cc([C@H]2CN3CC[C@H]2C[C@@H]3CNC(=O)c2ccco2)nc(C)n1 [CBK289119] | 110.458
24 | COCC(=O)N1CCc2sccc2C1c1ccc(NC(=O)c2ccc(OC)cc2)cc1 (stereo not drawn) [CBK286467] | 73.8088
25 | CS(=O)(=O)c1ccc(-c2ccc(C(=O)NCc3ccccc3)cn2)cc1 [CBK158885] | 99.9057
26 | COc1cc(NC(=O)NCC2CCN(CCOc3c(OC)cccc3OC)CC2)cc(OC)c1 [CBK051514] | 110.898

Row | SMILES | % of control remaining
27 | CCC(=O)Nc1nnc(-c2ccc3c(c2)OCCO3)o1 [CBK287404] | 98.2702
28 | OCCN1CCN(c2nnc(-c3ccccc3)cc2-c2ccccc2)CC1 [CBK270045] | 84.4227
29 | CN1C[C@]2(CC[C@@H](C(=O)NC3CC3)CC2)Oc2ccccc2C1=O [CBK282610] | 109.105
30 | CC(=O)NC1CCN(CC2(c3cccc(F)c3)CCCC2)CC1 [CBK282590] | 124.672
31 | Cc1cc(Br)ccc1-n1sc2ccccc2c1=O [CBK116239] | 76.6138
32 | Nc1ncc(-c2cccc(O)c2)nc1-c1ccc(C=O)cc1 [CBK064088] | 68.711
33 | O=C(CSc1nnc(-c2ccccc2Br)o1)c1ccc(F)cc1 [CBK068688] | 116.435
34 | CCNS(=O)(=O)c1ccc2c(c1)N(Cc1ccc(CO)o1)CC2 [CBK306158] | 86.0718
35 | C=CCOc1nc2c(=O)[nH]c(NC(=O)C(C)C)nc2n1[C@H]1C[C@@H](O)[C@@H](CO)O1 [CBK201216] | 141.297
36 | CCN1CCN(c2cc(N3CCN(C(=O)COc4ccccc4F)C(C)C3)c([N+](=O)[O-])cc2F)CC1 (stereo not drawn) [CBK267513] | 95.8769
37 | CC1(C)CC(N(Cc2ccccc2)Cc2c[nH]cn2)CC(C)(C)N1 [CBK283196] | 92.8977
38 | CSc1nsc(SCC(=O)c2ccc(Oc3ccccc3)cc2)n1 [CBK269104] | 98.1454
39 | Cc1cc(C)n(CC(=O)NCCCc2ccc(Cl)cc2)c(=O)n1 [CBK281561] | 95.3205
40 | O=C(C1CCCC1)N1C2CCC1CC(O)(c1cccnc1F)C2 (stereo not drawn) [CBK284421] | 46.7775
41 | CC(=O)c1ccc(NC(=O)COn2nnc3ccc([N+](=O)[O-])cc32)cc1 [CBK266980] | 90.4185
42 | COc1cc(OC)nc(Oc2ccc(C(=O)O)cc2)n1 [CBK092222] | 115.751
43 | Cc1ccc2nc(SCc3cccc([N+](=O)[O-])c3)nc(C)c2c1 [CBK264370] | 94.0702
44 | O=C1NC[C@]2(CC[C@@H](C(=O)NC3CC3)CC2)Oc2ccc(Cl)cc21 [CBK284889] | 91.6808
45 | COc1cccc2c1cc(C(=O)NC1CCCN(C)C1)n2C (stereo not drawn) [CBK283266] | 100.47
46 | CCc1ccc(Oc2c(CC(=O)O)oc3cc(O)c(CC)cc3c2=O)cc1 [CBK266108] | 64.4745
47 | Cc1ccc2c(c1)c(C)c(C(=O)NCCn1ccc(C)n1)n2C [CBK282609] | 118.236
48 | COc1ccc(-c2cc(C(=O)OCC(=O)c3cccc4ccccc34)c3ccccc3n2)cc1 [CBK265513] | 70.4436
49 | O=C(CCC(=O)Nc1ccc(F)cc1)N/N=C/c1ccc(O)cc1O [CBK261766] | 95.5356
50 | CCOc1ccccc1NC(=O)CCCC(=O)O [CBK275986] | 104.219
51 | O=C(c1nc2ccccc2s1)C1CCNCC1 [CBK285397] | 82.0924
52 | CSCCN1CCN(c2nccnc2OC2CCCCC2)CC1 [CBK082843T] | 112.196

Row | SMILES | % of control remaining
53 | Cc1cc(S(=O)(=O)Nc2ccnn2C(C)C)ccc1F [CBK283069] | 81.6584
54 | Cc1ccc(CCNc2c([N+](=O)[O-])nn(-c3ccc4c(c3)OCCO4)[n+]2[O-])cc1 [CBK268225] | 61.0232
55 | O=C(O)c1ccc(N2C(=O)CC(N3CCC(Cc4ccccc4)CC3)C2=O)cc1 (stereo not drawn) [CBK273484] | 107.061
56 | NC(=O)c1cccc(-c2nc(-c3cccs3)cnc2N)c1 [CBK064117] | 117.257
57 | O=C(CC(CN1CCN(Cc2cccnc2)CC1)C(=O)O)Nc1ccc(Cl)cc1 (stereo not drawn) [CBK286853] | 115.763
58 | COc1ccc(S(=O)(=O)N2CCN(C(=O)c3ccc(C(C)(C)C)cc3)CC2)cc1 [CBK157251] | 54.6616
59 | O=C(O)C1C2CCC(O2)C1C(=O)N1CCN(Cc2ccc(Cl)cc2)CC1 (stereo not drawn) [CBK286943] | 62.7799
60 | Cc1sc2ncn(CC(=O)NCCc3c[nH]cn3)c(=O)c2c1C [CBK304685] | 89.631
61 | CCOC(=O)C1(C2CCCCC2)CCN(C(=O)CC2CCCCC2)CC1 [CBK136919] | 101.992
62 | NC(=O)c1ccc(NC(=O)c2cncc(-c3ccc(C(=O)N4CCOCC4)cc3)c2)cc1 [CBK160214] | 86.7791
63 | CC1(C)C(C(=O)O)C1C(=O)NCCc1ccc(O)cc1 (stereo not drawn) [CBK286832] | 118.34
64 | CCc1nc2ccc(C(=O)NCCN3CCOCC3)cn2c1N(C=O)Cc1ccc(OC)cc1 [CBK146625] | 92.1813
65 | COc1ccccc1NC(=O)C1=C(C)Nc2nnnn2C1c1ccc(OC)c([N+](=O)[O-])c1 (stereo not drawn) [CBK293954] | 113.541
66 | O=C(NNc1ccc([N+](=O)[O-])cc1)c1cccs1 [CBK261709] | 102.975
67 | Cc1cc(C)c2c(N)c(C(=O)Nc3ccc(C(=O)O)cc3)sc2n1 [CBK300515] | 88.5824
68 | COCC(=O)N1CC[C@@H]2[C@H]1C(=O)N(c1ccc(OC)cc1)C(=O)N2Cc1ccccc1 [CBK289280] | 93.0603
69 | COc1ccc(NCC(=O)N/N=C(\C)c2ccccc2O)cc1 [CBK263887] | 93.892
70 | CCCCN(CC(N)=O)C(=O)c1sc(COc2ccc(Cl)cc2)nc1C [CBK304539] | 9.872
71 | O=C(O)C1CCN(C(=O)CCC2CCCCC2)CC1 [CBK286804] | 111.311
72 | O=C(NC1CC1)c1cnc2ccc(F)cc2c1O [CBK307629] | 81.04
73 | OCCOc1cccc(OCCOc2nccnc2N2CCNCC2)c1 [CBK014339G] | 103.583
74 | COc1ccc(CCN2C(=O)CC(N3CCN(c4ccccc4)CC3)C2=O)cc1OC (stereo not drawn) [CBK262354] | 92.8978
75 | COc1cccc2sc(Nc3nnc(-c4cccs4)o3)nc12 [CBK287473] | 62.6468
76 | Cn1c(SCC(=O)Nc2ccc(N3CCOCC3)c(Cl)c2)nnc1-c1ccc(N)cc1 [CBK265777] | 93.6041
77 | COc1ccc2[nH]c3c(c2c1)CCN(C(=O)CNCC(=O)O)C31CCN(CCOc2ccccc2)C1 (stereo not drawn) [CBK082782T] | 105.531
78 | COc1ccc(Sc2cc3n(c(=O)n2)CCc2cc(OC)c(OC)cc2-3)cc1 [CBK291186] | 117.507
